Results: the supplement of paper PMC8007513
Counter-ions that a name gives are not always drawn. ± gives the standard error. The whole screen tested about 1,300 compounds, of which about 75 (6%) showed an effect of 50% or more. Some of the results follow.

Tested on: Trichoderma virens ATCC 9645
Assay: growth yield (OD600) relative to untreated control; higher = less growth inhibition
Settings: compound concentration: 100 uM
Procedure, shortened: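 Trichoderma virens ATCC 9645 spores at 15,000 spores ml^−1 in potato dextrose broth were exposed in 96-well plates to library compounds at 100 μM final, with or without a biocide at 200 ng ml^−1. After growth at 30 °C, OD600 was read at 40 h and 72 h. Values are growth relative to the control without either agent, averaged over duplicate screens.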

SMILES | growth yield (40 h) | growth yield (72 h)
Cc1cccc(C)c1NC(=O)C1CCCCN1C (stereo unspecified) [Mepivacaine hydrochloride] | 99.3 ± 2.1% | 96.6 ± 1.4%
CN1C(C(=O)Nc2ccccn2)=C(O)c2sccc2S1(=O)=O [Tenoxicam] | 96.3 ± 3.5% | 101 ± 1.7%
Cc1ncc([N+](=O)[O-])n1CC(O)CCl (stereo unspecified) [Ornidazole] | 99.8 ± 2.9% | 103 ± 2.3%
C[C@]12CC[C@H]3C(=CCc4cc(O)ccc43)[C@@H]1CCC2=O [Equilin] | 92.3 ± 8.1% | 87 ± 4.8%
C=C[C@H]1CN2CC[C@H]1C[C@@H]2[C@@H](O)c1ccnc2ccc(OC)cc12 [Quinidine hydrochloride monohydrate] | 104 ± 1.6% | 105 ± 1.1%
Cn1c(=O)c2[nH]cnc2n(C)c1=O [Aminophylline] | 103 ± 6.7% | 101 ± 4%
CS(=O)(=O)c1ccc(C2=C(c3ccccc3)C(=O)OC2)cc1 [Rofecoxib] | 102 ± 3.2% | 101 ± 6.1%
CN(C)CCC=C1c2ccccc2CCc2ccccc21 [Amitryptiline hydrochloride] | 95.94 ± 0.64% | 97.95 ± 0.63%
Cc1ccnc2c1NC(=O)c1cccnc1N2C1CC1 [Nevirapine] | 104 ± 3.5% | 100 ± 4.4%
Cc1[nH]c(=O)c(C#N)cc1-c1ccncc1 [Milrinone] | 106 ± 4.1% | 103 ± 2.2%
NS(=O)(=O)c1cc2c(cc1Cl)N=CNS2(=O)=O [Chlorothiazide] | 102 ± 1.1% | 106.3 ± 0.63%
CNS(=O)(=O)Cc1ccc2[nH]cc(CCN(C)C)c2c1 [Sumatriptan succinate] | 98.5 ± 5.7% | 97.5 ± 5%
CN[C@H](CC(C)C)C(=O)N[C@H]1C(=O)N[C@@H](CC(N)=O)C(=O)N[C@H]2C(=O)N[C@H]3C(=O)N[C@H](C(=O)N[C@H](C(=O)O)c4cc(O)cc(O)c4-c4cc3ccc4O)[C@H](O)c3ccc(c(Cl)c3)Oc3cc2cc(c3O[C@@H]2O[C@H](CO)[C@@H](O)[C@H](O)[C@H]2O[C@H]2C[C@](C)(N)[C@H](O)[C@H](C)O2)Oc2ccc(cc2Cl)[C@H]1O [Vancomycin hydrochloride] | 111.3 ± 0.48% | 112 ± 2.5%
NC(=O)c1ncn([C@@H]2O[C@H](CO)[C@@H](O)[C@H]2O)n1 [Ribavirin] | 99.59 ± 0.79% | 100.8 ± 0.73%
CCOc1ccc2c(c1)C(C)=CC(C)(C)N2 [Ethoxyquin] | 84 ± 4% | 86.2 ± 1.5%
CCOC(=O)[C@H](CCc1ccccc1)N[C@@H](C)C(=O)N1[C@H](C(=O)O)C[C@@H]2CCC[C@@H]21 [Ramipril] | 109 ± 3.5% | 104 ± 2.6%
CC(C)COCC(CN(Cc1ccccc1)c1ccccc1)N1CCCC1 (stereo unspecified) [Bepridil hydrochloride] | 84.8 ± 4.1% | 103 ± 4.2%

SMILES | growth yield (40 h) | growth yield (72 h)
NS(=O)(=O)c1cc(C(=O)O)c(NCc2ccco2)cc1Cl [Furosemide] | 98.8 ± 2.2% | 105 ± 3.4%
Cc1cc(C2CCCCC2)n(O)c(=O)c1 [Ciclopirox ethanolamine] | 1.27 ± 1.3% | 1.15 ± 1.1%
COc1cc(C(=O)NS(=O)(=O)c2ccccc2C)ccc1Cc1cn(C)c2ccc(NC(=O)OC3CCCC3)cc12 [Zafirlukast] | 101.5 ± 0.79% | 102.8 ± 0.21%
O=C1NCN(c2ccccc2)C12CCN(CCCC(c1ccc(F)cc1)c1ccc(F)cc1)CC2 [Fluspirilen] | 96.4 ± 1.8% | 107 ± 2.2%
CC(C)(C)C(=O)OCOC(=O)[C@@H]1N2C(=O)[C@@H](NC(=O)[C@H](N)c3ccccc3)[C@H]2SC1(C)C [Pivampicillin] | 116 ± 7.5% | 111 ± 4.1%
N=C(N)NC(=O)c1nc(Cl)c(N)nc1N [Amiloride hydrochloride dihydrate] | 98.6 ± 5.2% | 94.6 ± 2.3%
CCCCOC(=O)c1ccc(N)cc1 [Butamben] | 66.9 ± 1.8% | 73 ± 2.5%
N[C@@H]1CCCCN(c2c(F)cc3c(=O)c(C(=O)O)cn(C4CC4)c3c2Cl)C1 [Besifloxacin hydrochloride] | 93.4 ± 6.3% | 91.6 ± 8.3%
CC[C@H]1OC(=O)[C@H](C)[C@@H](O[C@H]2C[C@@](C)(OC)[C@@H](O)[C@H](C)O2)[C@H](C)[C@@H](O[C@@H]2O[C@H](C)C[C@H](N(C)C)[C@H]2O)[C@](C)(OC)C[C@@H](C)C(=O)[C@H](C)[C@@H](O)[C@]1(C)O [Clarithromycin] | 107 ± 3% | 103 ± 1.3%
CCOc1ccccc1OCC1CNCCO1 (stereo unspecified) [Viloxazine hydrochloride] | 99.6 ± 1.8% | 96.4 ± 1.4%
CCCCC1=NC2(CCCC2)C(=O)N1Cc1ccc(-c2ccccc2-c2nnn[nH]2)cc1 [Irbesartan] | 96.1 ± 2.1% | 98.06 ± 0.32%
Nc1nc(=O)c2c([nH]1)NC[C@@H](CNc1ccc(C(=O)N[C@@H](CCC(=O)O)C(=O)O)cc1)N2C=O [Folinic acid calcium salt] | 99.8 ± 2.5% | 92 ± 4.1%
COc1ccc2cc([C@@H](C)C(=O)O)ccc2c1 [(R) -Naproxen sodium salt] | 84.5 ± 7% | 87.2 ± 6.4%
CC1(C)NC(=O)N(c2ccc([N+](=O)[O-])c(C(F)(F)F)c2)C1=O [Nilutamide] | 96.73 ± 0.79% | 95.8 ± 1.1%
CCCCC(CC)CNC(=N)NC(=N)NCCCCCCNC(=N)NC(=N)NCC(CC)CCCC (stereo unspecified) [Alexidine dihydrochloride] | 1.91 ± 0.32% | 1.89 ± 0.63%
COC(=O)[C@@H]1[C@H]2C[C@H]3c4[nH]c5ccccc5c4CCN3C[C@@H]2CC[C@@H]1O [Yohimbine hydrochloride] | 102 ± 2.5% | 104 ± 4.7%
